Some of the results follow. Shown are side measurements of this screen, not its main read-out; they come without a call. Square brackets hold non-standard residues; d marks the D form. Peptide text beside a SMILES is read from it. dPhe(4-Cl) = N[C@H](Cc1ccc(Cl)cc1)C(=O)O; d2Nal = N[C@H](Cc1ccc2ccccc2c1)C(=O)O; dCit = NC(=O)NCCC[C@@H](N)C(=O)O; d3Pal = N[C@H](Cc1cccnc1)C(=O)O
Legend:
Assay in all cases: Primary Screen for Target Class Profiling of Small Molecule Inhibitors of Methyltransferases
[1] = target: Glycine N-methyltransferase (Homo sapiens) (UniProt Q14749); conditions: purified enzyme, MTase-Glo SAH luminescence; measured here: GNMT inhibition; at 40 µM; stronger effect = lower value
How it was run: (§1)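 Each enzyme was assayed with SAM and its substrate. SAH formation detected by MTase-Glo luminescence; single-point 40 uM screen[…].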

[2] = target: Guanidinoacetate N-methyltransferase (Homo sapiens) (UniProt Q14353); conditions: purified enzyme, MTase-Glo SAH luminescence; measured here: GAMT inhibition; at 40 µM; stronger effect = lower value
How it was run: as §1

[3] = target: Histamine N-methyltransferase (Homo sapiens) (UniProt P50135); conditions: purified enzyme, MTase-Glo SAH luminescence; measured here: HNMT inhibition; at 40 µM; stronger effect = lower value
How it was run: as §1

[4] = target: Nicotinamide N-methyltransferase (Homo sapiens) (UniProt P40261); conditions: purified enzyme, MTase-Glo SAH luminescence; measured here: NNMT inhibition; at 40 µM; stronger effect = lower value
How it was run: as §1

[5] = target: Phenylethanolamine N-methyltransferase (Homo sapiens) (UniProt P11086); conditions: purified enzyme, MTase-Glo SAH luminescence; measured here: PNMT inhibition; at 40 µM; stronger effect = lower value
How it was run: as §1
On the % scale 0 is the no-effect control and ±100 the full control effect.

| SMILES | activity change, negative = inhibition [1] [%] | activity change, negative = inhibition [2] [%] | activity change, negative = inhibition [3] [%] | activity change, negative = inhibition [4] [%] | activity change, negative = inhibition [5] [%] |
| --- | --- | --- | --- | --- | --- |
| CC(C)c1ccc(N2C(=O)c3cc(-c4ccccc4)nn3CC2(C)C(=O)NCc2ccccc2)cc1 (stereo not given) | 3.91 | 0.054 | 3.77 | 1.31 | -1.22 |
| CC(C)Cn1c(=O)c2ccccc2n2c(=O)n(Cc3ccc(F)cc3)nc12 | 5.31 | 1.57 | 10.7 | -5.48 | 5.75 |
| COc1ccc(CCNC(=O)CCc2nnc3n(CCc4ccccc4)c(=O)c4ccccc4n23)cc1OC | -1.81 | 1.11 | 0.479 | 3.18 | -4.22 |
| CC/C=C/CC1=C(CCCCCCCC(=O)O)CCC1=O | 0.198 | -4.18 | 8.28 | -16.3 | 2.98 |
| CC(=O)NC[C@H]1CCN(Cc2ccc(Cl)cc2F)C[C@H]1N(C)C | -0.952 | 0.085 | 1 | 0.053 | -4.01 |
| CO[C@H]1C[C@@H]2CC[C@@H](C)[C@@](O)(O2)C(=O)C(=O)N2CCCC[C@H]2C(=O)O[C@H]([C@H](C)C[C@@H]2CC[C@@H](OP(C)(C)=O)[C@H](OC)C2)CC(=O)[C@H](C)/C=C(\C)[C@@H](O)[C@@H](OC)C(=O)[C@H](C)C[C@H](C)/C=C/C=C/C=C/1C | -5.11 | 13.3 | -6.33 | -4.83 | 4.35 |
| C=C1C(O)CC2C(C(=O)O)=COC(O[C@@H]3O[C@H](COC(=O)c4ccc(O)cc4)[C@@H](O)[C@H](O)[C@H]3O)C12 (stereo not given in full) | 0 | 5.21 | 4.14 | -7.63 | 6.18 |
| COC1CCCN(c2cc(-c3cccnc3)nc3c(C)noc23)C1 (stereo not given) | -8.11 | -2.29 | -8.62 | -16.7 | 7.47 |
| CCn1cc(C(=O)N2C[C@H](CO)C[C@H](CN3CCCC3)C2)c(C)n1 | -1.01 | 1.2 | -1.44 | -0.884 | -1.41 |
| CC1(C(=O)NC2CCCCC2)Cn2c(ccc2-c2ccco2)C(=O)N1Cc1cccc(F)c1 (stereo not given) | -0.273 | 0 | 8.46 | 5.3 | 2.53 |
| CC(C)OCCCNC(=O)C1(C)Cn2c(cc3ccccc32)C(=O)N1CCc1cccs1 (stereo not given) | 6.74 | 1.19 | 6.97 | 6.63 | 2.44 |
| Cc1ccc2c(cnn2C(=O)CCC(=O)N2CCN(C)CC2)c1 | -7.59 | 3.14 | -1.04 | -7.56 | -3.02 |
| CCC(C)NC(=O)c1ccc2c(=O)n(Cc3ccccc3)c3nn(CC(=O)NC4CCCC4)c(=O)n3c2c1 (stereo not given) | 5.69 | 0 | 10 | 0.208 | 3.34 |
| CCCN1C(=O)c2cc(-c3ccc(C(C)C)cc3)nn2CC1(C)C(=O)NC1CCCCC1 (stereo not given) | -4.36 | 1.12 | 4.3 | 3.52 | -0.167 |
| COc1cc2ncnc(Nc3cc(Br)c(O)c(Br)c3)c2cc1OC | -13.1 | -2.44 | -23.2 | -18.2 | -4.21 |
| COc1ccc(-c2noc(C(=O)NC(C)C)c2[C@H](C)O)cc1 | -2.94 | -1.76 | -0.003 | -4.82 | -5.18 |
| CCCn1c(=O)c2ccccc2n2c(=O)n(CC(=O)Nc3ccc(OC)cc3)nc12 | -2.2 | 0.542 | 3.96 | -1.05 | 1.47 |
| CCOC(=O)c1cc2n(n1)CC(C)(C(=O)NCCC(C)C)N(c1cccc(Cl)c1)C2=O (stereo not given) | 5.7 | 4.04 | 5.43 | 10.1 | 2.13 |

| SMILES | activity change, negative = inhibition [1] [%] | activity change, negative = inhibition [2] [%] | activity change, negative = inhibition [3] [%] | activity change, negative = inhibition [4] [%] | activity change, negative = inhibition [5] [%] |
| --- | --- | --- | --- | --- | --- |
| CC(=O)NCc1cccc(OC[C@@H](O)CNCCc2ccc(NS(=O)(=O)c3ccccc3)cc2)c1 | -2.8 | 0.331 | -2.86 | -16.1 | 1.57 |
| OCC1CN(c2ncccn2)CC12CCN(Cc1ccsc1)CC2 (stereo not given) | -2.88 | -4.96 | -9.23 | -7.43 | 0.321 |
| Cc1ccc(Cn2c(=O)c3ccccc3n3c(SCc4ccccc4)nnc23)cc1 | 0.322 | 6.78 | 1.53 | -2.81 | -1.63 |
| COc1ccc(C(=O)N2CC(=O)N(c3ccc(C)cc3)CC2C)c(OC)n1 (stereo not given) | -0.996 | -0.856 | -0.488 | 2.66 | 0.306 |
| O=C1CN(Cc2c(F)cccc2Cl)S(=O)(=O)c2ccccc2N1Cc1ccccc1F | 15.2 | 0 | 12.5 | 6.94 | 8.67 |
| COc1ccc(C2OCC3C(c4cc(OC)c5c(c4)OCO5)OCC23)cc1OC (stereo not given) | 0.289 | 6.53 | 11.4 | -7.12 | 2.15 |
| CCS(=O)(=O)N1CCC([C@@H](C)n2c(C)c(C(=O)NCc3c(OC)cc(C)[nH]c3=O)c3ccccc32)CC1 | 5.94 | 5.3 | 9.94 | -14.3 | 1.64 |
| Fc1ccc(CNc2ncnc3ccc(F)cc23)cc1 | -0.015 | 7.11 | 7.38 | -15.1 | -2.22 |
| COc1ccc(NC(=O)CC2CCCCN(C)C2=O)cc1OC (stereo not given) | -2.73 | -8.38 | -3.43 | -14.6 | 6.41 |
| CC(CCc1ccccc1)NC(=O)CCn1ccc2cc(S(=O)(=O)N3CCCC3)ccc21 (stereo not given) | -1.95 | 0 | 5.39 | 5.66 | 3.64 |
| CC1CCN(C(=O)CN2C(=O)NC3(CCCCC3)C2=O)CC1 | 2.01 | -4.65 | 1.7 | 2.82 | 1.53 |
| CCC(C)NC(=O)c1ccc2c(=O)n(C)c3nn(CC(=O)Nc4ccc(C)cc4)c(=O)n3c2c1 (stereo not given) | 3.35 | 2.98 | 3.22 | -1.02 | -0.759 |
| Cc1cc(C)n(CCC(=O)N2CCC(C3CCN(S(C)(=O)=O)CC3)C2)n1 (stereo not given) | -4.7 | -7.09 | -2.37 | -8.59 | -6.55 |
| COc1ccc(Cn2c(=O)c3ccccc3n3c(-c4ccc(OC)cc4O)nnc23)cc1 | -16.4 | 0 | 8.87 | -2.63 | 1.35 |
| O=C(c1ccc(Nc2nc3ccccc3n3nnnc23)cc1)N1CCN(c2ccc(F)cc2)CC1 | -21.7 | 0 | -3.01 | -4.59 | -5.31 |
| Cc1cccc(NC(=O)Cn2nc3n(CC(C)C)c(=O)c4ccc(C(=O)NC(C)C)cc4n3c2=O)c1 | -0.609 | 3.18 | 2.11 | -5.81 | -2.65 |
| Cn1c(=O)c2c(ncn2C)n(C)c1=O | -4.73 | 6.15 | -0.77 | -1.73 | 9.41 |
| CC(=O)N[C@H](Cc1ccc2ccccc2c1)C(=O)N[C@H](Cc1ccc(Cl)cc1)C(=O)N[C@H](Cc1cccnc1)C(=O)N[C@@H](CO)C(=O)N[C@@H](Cc1ccc(O)cc1)C(=O)N[C@H](CCCNC(N)=O)C(=O)N[C@@H](CC(C)C)C(=O)N[C@@H](CCCN=C(N)N)C(=O)N1CCC[C@H]1C(=O)N[C@H](C)C(N)=O (Ac-[d2Nal][dPhe(4-Cl)][d3Pal]SY[dCit]LRP[dA]-NH2) | 3.31 | 21.4 | 6.88 | 3.09 | 5.4 |
